# According to PubChem BioAssay AID485344 (National Center for Advancing Translational Sciences (NCATS), 2010):
# In all, about 340,000 compounds went through this assay and about 6,900 (2%) were called active. Cut-off read from the data, not from the text of the source: active = inhibition above about 30%; inactive = below that, where a call was filed. This is a selection; strong and weak results do not stand in their true shares. The source gives no active or inactive call for entries shown without one.
# Molecular target: D(2) dopamine receptor (Homo sapiens) (UniProt P14416)
# Assay: HTS Assay for Allosteric Antagonists of the Human D2 Dopamine Receptor: Primary Screen for Antagonists; note: 0% is about no effect
# Conditions: HEK293 TREx D2 cells, calcium flux, dopamine EC80; at 10 µM; stronger effect = higher value
# Method in brief: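 Tetracycline-induced HEK293 T-REx cells expressing D2 force-coupled to calcium signalling were dye-loaded, exposed to compound for 180 s, then challenged with an EC80 of dopamine; calcium flux was followed kinetically for a further 180 s.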
# Chain of UniProt P14416 (P14416 whole entry, looked up): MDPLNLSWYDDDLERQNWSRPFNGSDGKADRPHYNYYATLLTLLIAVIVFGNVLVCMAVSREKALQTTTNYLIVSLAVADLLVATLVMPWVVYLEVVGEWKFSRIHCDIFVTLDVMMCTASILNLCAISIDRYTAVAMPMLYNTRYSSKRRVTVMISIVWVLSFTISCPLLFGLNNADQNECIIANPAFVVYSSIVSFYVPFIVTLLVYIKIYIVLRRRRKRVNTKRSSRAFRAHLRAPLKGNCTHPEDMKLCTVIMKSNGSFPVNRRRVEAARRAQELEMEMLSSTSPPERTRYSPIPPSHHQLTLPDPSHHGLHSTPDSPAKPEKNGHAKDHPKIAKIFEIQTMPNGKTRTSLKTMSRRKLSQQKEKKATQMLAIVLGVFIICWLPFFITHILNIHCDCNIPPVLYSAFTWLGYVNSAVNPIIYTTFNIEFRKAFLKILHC
row,SMILES,inhibition
1,Cc1oc2ccc(O)c(CN3CCN(C)CC3)c2c1C(=O)Nc1cccc(C(F)(F)F)c1,-2.32%
2,CCOC(=O)c1c(NC(=O)CSc2cn(CCNC(=O)c3ccccc3OC)c3ccccc23)sc2c1CCC2,5.45%
3,CN1CC2=Cc3ccccc3OC23Oc2ccccc2C=C3C1,active: 64.2%
4,CC(C)c1nc2n(n1)C1(CCCCC1)[C@@H]1CCCC[C@@H]1N2,10.2%
5,Cc1c(CNC2CCCCC2)c(C(=O)O)c(C)n1Cc1ccc(F)cc1,-0.336%
6,CCOc1ccc(C(=O)Nc2ccc(-n3nncc3-c3ccccc3)cc2)cc1OCC,-15.3%
7,CCN(C(=O)c1cc2c(=O)n3cccc(C)c3nc2s1)c1ccc(C)c(C)c1,-21.1%
8,O=C(CN1CCN(C(=O)c2ccco2)CC1)Nc1ccc2c(c1)OCCO2,active: 53.5%
9,CC(C)(C)c1ccccc1NC(=O)CSc1nc(-c2cccs2)cc(C(F)(F)F)n1,-2.18%
10,Cc1nn(CC(=O)Nc2cc(F)ccc2F)c(=O)c2cccn12,-3.69%
11,CC(C)c1noc(-c2ccccc2OCC(=O)Nc2ccccc2[N+](=O)[O-])n1,-12.9%
12,Cc1cc(C)cc(OC(=O)N2CCOCC2)c1,active: 37.8%
13,Cc1cc(Nc2ccc(Cl)cc2C)nc(-n2nc(C)cc2C)n1,-17.1%
14,O=C(NCc1ccc2c(c1)CCN2C(=O)c1ccc(F)cc1)c1ccco1,3.44%
15,COc1ccccc1C(=O)Nc1cccc(C(=O)OCc2cc(=O)n3nc(C)sc3n2)c1,-0.355%
16,O=C(c1cc2ccc3cccnc3c2[nH]1)N1CCN(c2ccc(Cl)cc2)CC1,1.5%
17,Cc1c(Cl)cccc1NC(=O)Cn1nnc2sc3c(c2c1=O)CCCC3,16.5%
18,O=C(Nc1cccc(Cl)c1Cl)c1cc(S(=O)(=O)NCCc2ccccc2)ccc1F,-3.99%
19,Cc1ccc(/C=N/NC(=O)c2cccs2)cc1[N+](=O)[O-],active: 35.3%
20,O=C(CN1C(=O)C2(SCC(=O)N2c2ccccc2)c2ccccc21)NCc1ccccc1 (configuration not stated),-19.3%
21,NC(=O)CSc1ncc2c(n1)-c1ccccc1N(Cc1ccc(Cl)cc1)S2(=O)=O,-1.44%
22,C=Cc1ccc(COc2ccc3oc(-c4ccccc4)c(C(=O)OCC)c3c2)cc1,4.49%
23,COc1ccc(CNC(=O)c2cc(=O)c3cc(C)ccc3o2)cc1,-8.67%
24,CCOC(=O)c1ccc(NC(=O)C2(S(=O)(=O)c3ccc(Cl)cc3)CC2)cc1,-9.85%
25,Cc1cccc(C)c1NS(=O)(=O)c1ccc(NS(=O)(=O)c2ccc3c(c2)OCCO3)cc1,-3.55%
26,Cc1ccccc1NC(=O)CCC(=O)N1CC(C)Sc2ccccc21 (configuration not stated),-9.09%
27,Cc1ccc2oc(=O)c3cc(C(=O)NCCCN4CCCC(C)C4)sc3c2c1 (configuration not stated),active: 42.8%
